# Data: paper PMC4336329 (PLoS ONE, 2015)
# Among all 310,000 compounds or so, about 2,200 (0.71%) showed an effect of 50% or more. The effect is printed as a negative number. The list shows a part of the results.
# Biological target: human ether-à-go-go-related gene (hERG) potassium channel (human, UniProt Q12809)
# Assay: primary screen, population patch clamp on CHO cells stably expressing hERG
# Sequence of human ether-à-go-go-related gene (hERG) potassium channel (Q12809 whole entry, looked up): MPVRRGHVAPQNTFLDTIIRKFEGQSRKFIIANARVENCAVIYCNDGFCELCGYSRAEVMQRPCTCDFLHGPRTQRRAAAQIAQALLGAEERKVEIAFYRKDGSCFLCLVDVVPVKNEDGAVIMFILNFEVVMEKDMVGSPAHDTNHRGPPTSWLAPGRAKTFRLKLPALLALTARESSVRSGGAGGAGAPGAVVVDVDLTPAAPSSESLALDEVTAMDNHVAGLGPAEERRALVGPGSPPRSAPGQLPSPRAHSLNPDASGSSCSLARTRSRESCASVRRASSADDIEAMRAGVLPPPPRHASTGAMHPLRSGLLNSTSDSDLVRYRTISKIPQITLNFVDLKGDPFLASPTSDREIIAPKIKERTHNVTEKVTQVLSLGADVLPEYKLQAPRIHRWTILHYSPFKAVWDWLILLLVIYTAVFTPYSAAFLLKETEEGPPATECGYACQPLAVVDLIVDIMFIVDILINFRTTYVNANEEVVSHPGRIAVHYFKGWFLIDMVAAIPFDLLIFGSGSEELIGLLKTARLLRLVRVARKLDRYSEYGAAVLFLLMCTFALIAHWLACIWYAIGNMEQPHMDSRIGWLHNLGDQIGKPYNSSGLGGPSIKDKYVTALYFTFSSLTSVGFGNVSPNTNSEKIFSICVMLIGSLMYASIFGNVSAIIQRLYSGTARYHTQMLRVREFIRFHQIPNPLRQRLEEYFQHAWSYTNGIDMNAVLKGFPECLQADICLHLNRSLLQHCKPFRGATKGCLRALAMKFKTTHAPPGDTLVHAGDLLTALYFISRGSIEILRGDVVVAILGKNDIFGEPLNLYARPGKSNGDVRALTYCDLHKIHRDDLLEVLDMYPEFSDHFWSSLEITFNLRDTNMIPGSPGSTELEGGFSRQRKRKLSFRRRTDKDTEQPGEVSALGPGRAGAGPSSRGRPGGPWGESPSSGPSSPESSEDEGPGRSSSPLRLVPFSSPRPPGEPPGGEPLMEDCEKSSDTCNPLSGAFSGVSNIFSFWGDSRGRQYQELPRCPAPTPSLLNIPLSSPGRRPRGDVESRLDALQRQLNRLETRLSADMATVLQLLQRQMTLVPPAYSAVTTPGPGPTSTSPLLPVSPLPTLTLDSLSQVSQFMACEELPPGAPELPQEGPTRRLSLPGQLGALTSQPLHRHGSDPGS
row,Compound,"hERG current change (%, negative = inhibition) at 1uM [%]"
1,O=C(Nc1cccc(F)c1)C1CCN(C(=O)Cc2ccccc2)CC1,5.14
2,CCCCN1CC[C@H]2C=CC[C@@H](C(=O)Nc3ccccc3)[C@H]2C1=O,3.83
3,CN(C)CCCN=Cc1c(O)n(Cc2ccccc2)c(=O)c2ccccc12,-25.5
4,COc1cc2ncnc(NCc3ccc(F)cc3)c2cc1OC,-11.8
5,CC(=O)Nc1ccc(NC(=O)c2cc(-c3ccc(C)cc3O)n[nH]2)cc1,13.8
6,O=C(CCN1C(=O)C2C3C=CC(C3)C2C1=O)N1CCN(c2ccccc2F)CC1 (centres unmarked),6.95
7,CCCNS(=O)(=O)c1ccc(N2CCCC2=O)c([N+](=O)[O-])c1,7.62
8,COc1cccc2cc(C(=O)NCCN3CCOCC3)oc12,11.1
9,Cc1ccc(Cl)cc1-n1ncc2c(NNC(=O)c3ccco3)ncnc21,4.23
10,Cc1nonc1OC(C)CNc1ccc([N+](=O)[O-])cc1 (centres unmarked),-20.5
11,CCSc1nnc(NC(=O)C(C(F)(F)F)C(F)(F)F)s1,7.55
12,COc1c(F)c(F)c(C(=O)O)c(Nc2ccccc2)c1F,-5.65
13,O=C(/C=C/c1ccccc1[N+](=O)[O-])NCc1ccc(Cl)cc1,4.33
14,CCC1CCCCN1CCCNC(=O)c1ccc(N2CCOCC2)c(NS(=O)(=O)c2ccc(OC)cc2)c1 (centres unmarked),-18.5
15,O=C(NCCc1ccccc1Cl)C1CC(=O)N(C2CCCCC2)C1 (centres unmarked),14.6
16,COC(=O)c1ccc(CNC(=O)COC(=O)Cc2ccsc2)cc1,6.06
17,CCOc1ccc(Nc2cc(C)nc(N3CCOCC3)n2)cc1,7.56
18,Cc1cc(O)ccc1NS(=O)(=O)c1ccc2c3c(cccc13)C(=O)N2,1.43
19,Cc1cccn2c(=O)nc(SCC(=O)NCc3ccc(F)cc3)nc12,4.86
20,CCC(=O)N(Cc1cc2cc(OC)ccc2[nH]c1=O)c1ccccc1C,16
21,CCOC(=O)/C=C/c1ccc2c(c1)S(=O)(=O)N(Cc1ccc(OC)cc1)[C@H]2CC(=O)OCC,1.36
22,CC1=CC(C)C(C[N+]2(C)CCCCC2)C(C)C1.[I-] (centres unmarked),12.7
23,Cn1c(SCc2c(F)cccc2Cl)nnc1-c1cccs1,-16.3

row,Compound,"hERG current change (%, negative = inhibition) at 1uM [%]"
1,CCOC(=O)C1(CCc2ccccc2)CCN(Cc2c(O)cccc2OC)CC1,-28.7
2,COCCn1c(Cc2ccccc2)nnc1SCC(=O)Nc1ccccc1,9.06
3,Cc1ccc(N2CC(C(=O)NCCN3CCOCC3)CC2=O)cc1 (centres unmarked),14.6
4,CCN1CCN(CCCN(Cc2ccco2)C(=S)Nc2ccc(C)c(Cl)c2)CC1,-19.1
5,CCCCN(C)C(=O)Cn1c(=O)oc2cc(S(=O)(=O)N3CC(C)CC(C)C3)ccc21 (centres unmarked),7.88
6,CCOC(=O)c1c(NC(=O)CSc2nnc(Cc3ccccc3)o2)sc(C)c1C,1.55
7,O=C(NC(=S)Nc1ccc(O)cc1)C1CCCC1,22.2
8,CCN1CCCC1CNC(=O)c1cc([N+](=O)[O-])c(N(C)C)cc1OC (centres unmarked),7.8
9,O=C1OCCC1N1C(=O)c2ccccc2S1(=O)=O (centres unmarked),-5.13
10,CSc1cc(-c2ccccc2)[nH]c(=O)c1C#N,14
11,CC(=O)c1ccc(NC(=O)c2ccc3nc(-c4ccco4)c(-c4ccco4)nc3c2)cc1,11.4
12,COc1ccc(CNS(=O)(=O)c2cc(Br)cc3c2N(C(C)=O)C(C)C3)cc1 (centres unmarked),1.29
13,O=C(COC(=O)/C=C/c1ccc(S(=O)(=O)N2CCOCC2)cc1)NCc1ccccc1,2.83
14,O=[N+]([O-])c1cccc(-c2noc(COc3ccccc3)n2)c1,17.6
15,Cn1ccnc1SCC(=O)Nc1sccc1C#N,8.23
16,O=C(Nc1ccc(-c2csc(Nc3ccc(Cl)cc3)n2)cc1)c1cccc(C(F)(F)F)c1,11.9
17,Cc1ccc(S(=O)(=O)CCC(=O)OCC(=O)NCc2ccccc2)cc1,1.19
18,Cc1nn(C(=O)c2ccco2)c(C)c1Sc1ccc(Br)cc1,-0.0162
19,CC(C)Oc1ccc(S(=O)(=O)N2CCCCC2)cc1NC(=O)CN1C(=O)NC2(CCCC2)C1=O,3.06
20,COc1ccc(C2(c3ccc(OC)cc3)NC(=O)N(CC(=O)N(C)c3ccccc3)C2=O)cc1,16.1
21,O=C(CCl)Nc1sccc1C(=O)c1ccccc1,8.5
22,CC1(C)CC(NC(=O)CCc2nnc(CCCCc3ccccc3)o2)CCO1 (centres unmarked),10.6
23,CC(=O)Nc1ccc(S(=O)(=O)NCC2CCC(C(=O)NCCC3=CCCCC3)CC2)cc1 (centres unmarked),6.61

row,Compound,"hERG current change (%, negative = inhibition) at 1uM [%]"
1,O=C1CS/C(=C\[N+](=O)[O-])N1c1ccccc1,-4.14
2,O=S1(=O)CC(NCc2ccccc2)C(Nc2ccc(Cl)cc2)C1 (centres unmarked),6.33
3,Clc1cccc(-c2nc3nc4ccccc4nc3n2Cc2ccco2)c1,-4.38
4,CCC(C(=O)Nc1cc(C(=O)O)ccc1C)c1ccccc1 (centres unmarked),13.2
5,NS(=O)(=O)c1ccc(O)c(NC(=O)c2ccc([N+](=O)[O-])o2)c1,7.82
6,COc1ccccc1C(=O)Nc1ccc2nc3n(c(=O)c2c1)CCCC3,-2.02
7,CS(=O)(=O)c1ccc(C(=O)OCC(=O)N2CCCc3ccccc32)cc1,11.3
8,CC(C)n1c(CN(C)Cc2ccccc2)nc2c1c(=O)n(C)c(=O)n2C,16.7
9,COc1ccc(C(O)C(CC(=O)NCCCOC(C)C)C(=O)NCCCOC(C)C)cc1OC (centres unmarked),11.4
10,S=c1nc2ccccc2c2nc(-c3ccccc3Cl)[nH]n12,11.2
11,Cc1nnc(NC(=O)CSc2nc3ccccc3o2)s1,13.1
12,COc1cc(NC(=O)CSc2nnc(-c3ccncc3)o2)cc(OC)c1OC,27
13,CC12CN3CC(C)(CN(C1)C31CCSCC1)C2=O,9.42
14,CCOC(=O)C1=C(CSc2n[nH]c(N)n2)NC(=O)NC1C (centres unmarked),7.47
15,Oc1cccc2ccc(/C=C/c3ccccc3Br)nc12,15.8
16,Cc1cc(NC(=O)c2c(Cl)cnn2C)no1,7.38
17,O=c1cc(CN2CCCCC2)nc(C2CC2)[nH]1,-1.73
18,COC(=O)C1=C2SC(C)C(=O)N2C(N)=C(C#N)C1c1ccc(OC)c(OC)c1 (centres unmarked),1.71
19,COc1ccc(CNC(=O)c2cccc(NC3=NC4CS(=O)(=O)CC4S3)c2)cc1 (centres unmarked),-0.0298
20,Cc1cc(O)cc(O)c1-c1onc(C(F)(F)F)c1-c1cscn1,11.6
21,COCCOc1ccc(C(F)(F)F)cc1NC(=O)COC(=O)c1cc[n+]([O-])cc1,5.82
22,COc1ccc(C(=O)NCc2c(CC(C)C)oc(C)c2C(=O)O)cc1,4.72
23,COc1ccc(NC(C)=O)cc1S(=O)(=O)NC(Cc1ccccc1)C(=O)O (centres unmarked),9.58

row,Compound,"hERG current change (%, negative = inhibition) at 1uM [%]"
1,O=c1[nH]c2cc3c(cc2cc1CN(Cc1nnnn1C1CCCC1)C1CCCC1)OCCO3,-3.24
2,CCOC(=O)C1=C(COC(=O)CCOc2ccc(OC)cc2)NC(=O)NC1C (centres unmarked),0.743
3,COc1cccc(CN2CCCCC2C(=O)O)c1 (centres unmarked),8.26
4,O=C1SC(c2ccccc2)=C/C1=C\N1CCCCC1,1.93
5,Cc1nnc(SCc2nc3ccccc3[nH]2)s1,-13.5
6,CCOc1ccc(N(CC(=O)Nc2ccccc2F)S(=O)(=O)c2c(C)[nH]c(=O)[nH]c2=O)cc1,10
7,COc1ccc(N2C(=O)CC(NC3CC3)C2=O)cc1 (centres unmarked),16.5
8,O=C(CCSc1ccccc1)N1CCN(c2ccccc2)CC1,7.48
9,CN1CCN(C(=O)CC2C(=O)NCCN2Cc2ccc(-c3ccccc3)cc2)CC1 (centres unmarked),5.82
10,CC(=O)c1cccc(NC(=O)COC(=O)CC2CC3CCC2C3)c1 (centres unmarked),4.89
11,O=C(Oc1c(CN2CCOCC2)cc(Cl)c2cccnc12)c1ccccc1F,11.2
12,COCCCC1CCN(C(=O)c2cc(COc3ccc(C)nc3)on2)CC1,8.18
13,Cc1ccsc1C(=O)C1CCCN(Cc2cnc(N3CCOCC3)s2)C1 (centres unmarked),-7.04
14,O=c1c2cnn(-c3ccccc3)c2nc(-c2cccs2)n1-c1cccc(Cl)c1,9.21
15,Cc1ccc(-c2csc(N3CCN(c4cc5c(cc4Cl)nc(-c4ccncc4)n5CCN4CCCCC4)CC3)n2)cc1,18.9
16,CN1C(=O)NC(c2cccc(O)c2)C(C(=O)c2cccs2)C1(O)C(F)(F)F (centres unmarked),15.4
17,O=C(Nc1ccc(F)cc1F)Nc1csc2ccccc12,12.6
18,O=C(Nc1ccnc(-c2cccnc2)n1)c1cccs1,-8.54
19,COc1ccc(NC(=O)C2C3C=CC4(O3)C2C(=O)N(CCN2CCCCC2C)C4C(=O)NC2CCCC(C)C2C)cc1 (centres unmarked),5.26
20,Nc1ccc(S(=O)(=O)[O-])c[nH+]1,6.57
